Some of the results follow. Single values are uncertain, as repeats are few or missing.
Test system: RPMI7951
Test: cell count relative to DMSO control; melanoma cells; higher = more viable cells
Settings: library dose: low library concentration; 72 h
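Also: cell number obtained by counting DAPI-stained nuclei in high-throughput microscope images with image analysis software, screen run in 1,536-well plates.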

| Compound | cell count [%] |
| --- | --- |
| CC1(C)CCC(c2ccc(Cl)cc2)=C(CN2CCN(c3ccc(C(=O)NS(=O)(=O)c4ccc(N[C@H](CCN5CCOCC5)CSc5ccccc5)c(S(=O)(=O)C(F)(F)F)c4)cc3)CC2)C1 + C[C@]1(c2nc3c(C(N)=O)cccc3[nH]2)CCCN1 [Veliparib] (first compound 0.4 µM, partner dose 1.4 µM) | 46.7 |
| Cc1ccc(Nc2nccc(N(C)c3ccc4c(C)n(C)nc4c3)n2)cc1S(N)(=O)=O [Pazopanib] + CC(=O)c1c(C)c2cnc(Nc3ccc(N4CCNCC4)cn3)nc2n(C2CCCC2)c1=O [palbociclib] (first compound 0.4 µM, partner dose 0.04 µM) | 61.6 |
| O=C(/C=C/c1cccnc1)NCCCCC1CCN(C(=O)c2ccccc2)CC1 + CC(=O)O[C@@]12CO[C@@H]1C[C@H](O)[C@@]1(C)C(=O)[C@H](O)C3=C(C)[C@@H](OC(=O)[C@H](O)[C@@H](NC(=O)OC(C)(C)C)c4ccccc4)C[C@@](O)([C@@H](OC(=O)c4ccccc4)[C@H]21)C3(C)C [Docetaxel] (first compound 0.01 µM, partner dose 0.0001 µM) | 34.7 |
| O=C(/C=C/c1cccnc1)NCCCCC1CCN(C(=O)c2ccccc2)CC1 + COc1ccc(C2=N[C@@H](c3ccc(Cl)cc3)[C@@H](c3ccc(Cl)cc3)N2C(=O)N2CCNC(=O)C2)c(OC(C)C)c1 [Nutlin-3] (first compound 0.01 µM, partner dose 0.1 µM) | 121 |
| O=C(/C=C/c1cccnc1)NCCCCC1CCN(C(=O)c2ccccc2)CC1 + COc1ccc(Cl)c(Nc2nc3ccccc3nc2NS(=O)(=O)c2cccc(NC(=O)C(C)(C)N)c2)c1 [XL147] (first compound 0.01 µM, partner dose 0.8 µM) | 87.9 |
| O=C(/C=C/c1cccnc1)NCCCCC1CCN(C(=O)c2ccccc2)CC1 + CCN(CC)CCCCNc1ncc2cc(-c3cc(OC)cc(OC)c3)c(NC(=O)NC(C)(C)C)nc2n1 [PD173074] (first compound 0.01 µM, partner dose 0.1 µM) | 93.2 |
| O=C(/C=C/c1cccnc1)NCCCCC1CCN(C(=O)c2ccccc2)CC1 + C[C@]1(O)C[C@@H](c2nc(-c3ccc4ccc(-c5ccccc5)nc4c3)c3c(N)nccn32)C1 [OSI906] (first compound 0.01 µM, partner dose 0.4 µM) | 112 |
| Cc1ccc(Nc2nccc(N(C)c3ccc4c(C)n(C)nc4c3)n2)cc1S(N)(=O)=O [Pazopanib] + CS(=O)(=O)CCNCc1ccc(-c2ccc3ncnc(Nc4ccc(OCc5cccc(F)c5)c(Cl)c4)c3c2)o1 [lapatinib] (first compound 0.4 µM, partner dose 0.8 µM) | 67.5 |
| CC1(C)CCC(c2ccc(Cl)cc2)=C(CN2CCN(c3ccc(C(=O)NS(=O)(=O)c4ccc(N[C@H](CCN5CCOCC5)CSc5ccccc5)c(S(=O)(=O)C(F)(F)F)c4)cc3)CC2)C1 + O=C(Nc1cccc(Cl)c1)Nc1ncc(CCNc2ncnc3ccsc23)s1 [SNS314] (first compound 0.4 µM, partner dose 0.0008 µM) | 61.5 |
| O=C(/C=C/c1cccnc1)NCCCCC1CCN(C(=O)c2ccccc2)CC1 + CO[C@H]1C[C@@H]2CC[C@@H](C)[C@@](O)(O2)C(=O)C(=O)N2CCCC[C@H]2C(=O)O[C@H]([C@H](C)C[C@@H]2CC[C@@H](OCCO)[C@H](OC)C2)CC(=O)[C@H](C)/C=C(\C)[C@@H](O)[C@@H](OC)C(=O)[C@H](C)C[C@H](C)/C=C/C=C/C=C/1C [everolimus] (first compound 0.01 µM, partner dose 0.02 µM) | 79.2 |
| CC1(C)CCC(c2ccc(Cl)cc2)=C(CN2CCN(c3ccc(C(=O)NS(=O)(=O)c4ccc(N[C@H](CCN5CCOCC5)CSc5ccccc5)c(S(=O)(=O)C(F)(F)F)c4)cc3)CC2)C1 + CO[C@H]1C[C@@H]2CC[C@@H](C)[C@@](O)(O2)C(=O)C(=O)N2CCCC[C@H]2C(=O)O[C@H]([C@H](C)C[C@@H]2CC[C@@H](OCCO)[C@H](OC)C2)CC(=O)[C@H](C)/C=C(\C)[C@@H](O)[C@@H](OC)C(=O)[C@H](C)C[C@H](C)/C=C/C=C/C=C/1C [everolimus] (first compound 0.4 µM, partner dose 0.02 µM) | 45.7 |
| O=C(/C=C/c1cccnc1)NCCCCC1CCN(C(=O)c2ccccc2)CC1 + C#Cc1cccc(Nc2ncnc3cc(OCCOC)c(OCCOC)cc23)c1 [erlotinib] (first compound 0.01 µM, partner dose 0.8 µM) | 88 |
| CC1(C)CCC(c2ccc(Cl)cc2)=C(CN2CCN(c3ccc(C(=O)NS(=O)(=O)c4ccc(N[C@H](CCN5CCOCC5)CSc5ccccc5)c(S(=O)(=O)C(F)(F)F)c4)cc3)CC2)C1 + Cn1cnc2c(F)c(Nc3ccc(Br)cc3Cl)c(C(=O)NOCCO)cc21 [selumetinib] (first compound 0.4 µM, partner dose 0.015 µM) | 63.6 |
| O=C(/C=C/c1cccnc1)NCCCCC1CCN(C(=O)c2ccccc2)CC1 + Cn1cnc2c(F)c(Nc3ccc(Br)cc3Cl)c(C(=O)NOCCO)cc21 [selumetinib] (first compound 0.01 µM, partner dose 0.015 µM) | 89.3 |
| Cc1ccc(Nc2nccc(N(C)c3ccc4c(C)n(C)nc4c3)n2)cc1S(N)(=O)=O [Pazopanib] + CC(C)CCN1c2nc(Nc3cc(F)c(O)c(F)c3)ncc2N(C)C(=O)C1C [BID1870] (first compound 0.4 µM, partner dose 0.2 µM) | 89.8 |
| CC1(C)CCC(c2ccc(Cl)cc2)=C(CN2CCN(c3ccc(C(=O)NS(=O)(=O)c4ccc(N[C@H](CCN5CCOCC5)CSc5ccccc5)c(S(=O)(=O)C(F)(F)F)c4)cc3)CC2)C1 + COc1ccc2c(c1)CCC1C2CCC2(C)C(NCCCCCCN3C(=O)C=CC3=O)CCC12 [U73122] (first compound 0.4 µM, partner dose 0.4 µM) | 40.8 |
| O=C(/C=C/c1cccnc1)NCCCCC1CCN(C(=O)c2ccccc2)CC1 + Cc1cn(-c2cc(NC(=O)c3ccc(C)c(Nc4nccc(-c5cccnc5)n4)c3)cc(C(F)(F)F)c2)cn1 [nilotinib] (first compound 0.01 µM, partner dose 0.2 µM) | 95.4 |
| Cc1ccc(Nc2nccc(N(C)c3ccc4c(C)n(C)nc4c3)n2)cc1S(N)(=O)=O [Pazopanib] + NC(=O)c1ccc(N(C(N)=O)c2c(F)cccc2F)nc1-c1ccc(F)cc1F [VX702] (first compound 0.4 µM, partner dose 0.4 µM) | 101 |
| Cc1ccc(Nc2nccc(N(C)c3ccc4c(C)n(C)nc4c3)n2)cc1S(N)(=O)=O [Pazopanib] + O=C(O)c1ccc(-c2c[nH]c3ncc(-c4ccccc4)cc23)cc1C1CCCC1 [GSK650394] (first compound 0.4 µM, partner dose 0.16 µM) | 91.4 |
| CC1(C)CCC(c2ccc(Cl)cc2)=C(CN2CCN(c3ccc(C(=O)NS(=O)(=O)c4ccc(N[C@H](CCN5CCOCC5)CSc5ccccc5)c(S(=O)(=O)C(F)(F)F)c4)cc3)CC2)C1 + Nc1nc(F)nc2c1ncn2[C@@H]1O[C@H](CO)[C@@H](O)[C@@H]1O [fludarabine] (first compound 0.4 µM, partner dose 0.2 µM) | 51.4 |
| Cc1ccc(Nc2nccc(N(C)c3ccc4c(C)n(C)nc4c3)n2)cc1S(N)(=O)=O [Pazopanib] + Cc1nc(Nc2ncc(C(=O)Nc3c(C)cccc3Cl)s2)cc(N2CCN(CCO)CC2)n1 [dasatanib] (first compound 0.4 µM, partner dose 0.004 µM) | 76.2 |
| CC1(C)CCC(c2ccc(Cl)cc2)=C(CN2CCN(c3ccc(C(=O)NS(=O)(=O)c4ccc(N[C@H](CCN5CCOCC5)CSc5ccccc5)c(S(=O)(=O)C(F)(F)F)c4)cc3)CC2)C1 + Cn1c(Nc2ccc(C(F)(F)F)cc2)nc2cc(Oc3ccnc(-c4ncc(C(F)(F)F)[nH]4)c3)ccc21 [CHIR265] (first compound 0.4 µM, partner dose 0.08 µM) | 30.7 |
| CC1(C)CCC(c2ccc(Cl)cc2)=C(CN2CCN(c3ccc(C(=O)NS(=O)(=O)c4ccc(N[C@H](CCN5CCOCC5)CSc5ccccc5)c(S(=O)(=O)C(F)(F)F)c4)cc3)CC2)C1 + C=C(c1ccc(C(=O)O)cc1)c1cc2c(cc1C)C(C)(C)CCC2(C)C [Bexarotene] (first compound 0.4 µM, partner dose 2 µM) | 56.4 |
| CC1(C)CCC(c2ccc(Cl)cc2)=C(CN2CCN(c3ccc(C(=O)NS(=O)(=O)c4ccc(N[C@H](CCN5CCOCC5)CSc5ccccc5)c(S(=O)(=O)C(F)(F)F)c4)cc3)CC2)C1 + Cc1cn(-c2cc(NC(=O)c3ccc(C)c(Nc4nccc(-c5cccnc5)n4)c3)cc(C(F)(F)F)c2)cn1 [nilotinib] (first compound 0.4 µM, partner dose 0.2 µM) | 61.6 |
| Cc1ccc(Nc2nccc(N(C)c3ccc4c(C)n(C)nc4c3)n2)cc1S(N)(=O)=O [Pazopanib] + CO[C@H]1C[C@@H]2CC[C@@H](C)[C@@](O)(O2)C(=O)C(=O)N2CCCC[C@H]2C(=O)O[C@H]([C@H](C)C[C@@H]2CC[C@@H](OCCO)[C@H](OC)C2)CC(=O)[C@H](C)/C=C(\C)[C@@H](O)[C@@H](OC)C(=O)[C@H](C)C[C@H](C)/C=C/C=C/C=C/1C [everolimus] (first compound 0.4 µM, partner dose 0.02 µM) | 80.2 |

Source: the supplement of paper PMC4604168 (melanoma cell lines)
